# Results: PubChem BioAssay AID445 (National Center for Advancing Translational Sciences (NCATS), 2006)
# About 40 (0.04%) of roughly 110,000 compounds were called active. Inconclusive means that the source gave no clear call. Such entries were picked first, then a sample of the others. Calls follow the shape of the dose curve; as a rule, active = well fitted curve in the direction sought with a large enough effect in the signal ratio (not every such curve was filed as active); inconclusive = small, poorly fitted or top-dose-only effect, or a change in a side signal; inactive = flat fitted curve, though single readings scatter; the % refers to the signal ratio. Where the call is inconclusive, the potency comes from a doubtful curve fit.
# Experiment: IkB Signaling;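 as to IkBa stabilization activation: 0% = basal untreated cells and 100% = reference inhibitor full response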
# Details: ABC-DLBCL IkBa-CBG/CBR dual luciferase ratio (green luciferase fused to IkBa over red control in OCI-Ly3 lymphoma cells), 4 h; IkBa stabilization activation: at 57.1 µM (top of the series), scaled: untreated 0%, proteasome inhibitor 100% unless noted
# In short: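 Luminescence ratio of IκBα-fused green versus native red beetle luciferase in OCI-Ly3 cells, 4 h post-doxycycline with compound; red signal alone, scaled from basal (0%) to zero light (-100%), flagged nonspecific or cytotoxic effects.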
# Potency is read from the fitted curve at half-maximal effect.
Structure (SMILES),IkBa stabilization activation,Potency
Cc1cccc(C)c1OCC(=O)Nc1nc(-c2ccc(Br)cc2)ns1,inconclusive: -0.861% [signal inhibitor],
c1cn(-c2ccnc(-c3ccc4c(c3)OCO4)n2)cn1,"inactive: -1.06% [at 11.4 µM, scaled: untreated 0%, proteasome inhibitor 100%]",
O=C(OC1CCCCC1)c1ccc(NC(=O)c2ccco2)cc1,inconclusive: 4.79% [signal inhibitor],
CCn1c(SCC(=O)Nc2nc3ccccc3s2)nc2c(c1=O)SC(C)C2 (stereo unspecified),inconclusive: -0.0819% [signal inhibitor],
CCc1ccc2oc(-c3ccc(NC(=O)c4ccc(OC)c(Br)c4)cc3)nc2c1,,"inconclusive: 12.6 µM [signal inhibitor, partial curve]"
CCOc1cc(C(=O)CSc2nnc(CNc3ccc(Cl)cc3)o2)ccc1NC(=O)CC,inactive: 3.49%,
O=C(NCCc1csc(-c2ccc(Cl)cc2)n1)c1cccs1,inconclusive: 1.45% [signal inhibitor],
CCc1ccccc1NC(=O)Cn1c(-c2nonc2N)nc2ccccc21,inconclusive: 0.532% [signal inhibitor],
CS(=O)(=O)c1ccc(/C=N\NC(N)=S)cc1,"inactive: -1.35% [at 11.4 µM, scaled: untreated 0%, proteasome inhibitor 100%]",
COC(=O)c1c(NC(=O)CCCOc2ccc(C(C)(C)C)cc2)sc2c1CCC(C)C2 (stereo unspecified),inconclusive: 4.12% [signal inhibitor],
O=S(=O)(Nc1ccc2oc3c(c2c1)CCCC3)c1cc(Cl)ccc1Cl,inconclusive: 10.1% [signal inhibitor],
CCN(C(=O)Cn1nc(Cc2cccnc2)c2ccccc2c1=O)c1ccccc1F,inconclusive: -0.735% [signal inhibitor],
COc1ccc(Cc2nnc(SCc3c(C)noc3C)n2C2CCCCC2)cc1OC,inconclusive: 3.52% [signal inhibitor],
COc1ccc(-c2nnc(C3CCN(C(=O)c4ccccc4F)CC3)o2)cc1,inactive: 0.404%,
Cc1cccc(NC(=O)C2CCN(c3nnc(-n4c(C)ccc4C)s3)CC2)c1C,inconclusive: -0.4% [signal inhibitor],
Cc1cc(C)n(-c2ccc(C(=O)OCC(=O)c3ccc(Br)s3)cc2)n1,,"inconclusive: 20 µM [signal inhibitor, partial curve]"
Cc1ccc2nc(-c3cc(NC(=O)c4ccc5c(c4)OCCO5)ccc3Cl)oc2c1,inconclusive: 4.68% [signal inhibitor],
COc1ccc(-c2onc(C)c2C)cc1S(=O)(=O)N1c2ccccc2CC1C (stereo unspecified),inconclusive: 5.14% [signal inhibitor],
Cc1ccc(S(=O)(=O)Cc2nc(-c3ccc(C(=O)NCc4ccccc4)cc3)oc2C)cc1,inactive: -2.12%,
COc1ccc(OCCn2cc(C(=O)C3CCCCC3)c3ccccc32)cc1,,"inconclusive: 10 µM [signal inhibitor, partial curve]"
COc1cccc(N2CCN(C(=O)c3cnn(C(C)(C)C)c3C3CCN(C(=O)OC(C)(C)C)CC3)CC2)c1,inconclusive: 1.04% [signal inhibitor],
Cc1cc2ccccc2c[n+]1CC(O)C[n+]1cc2ccccc2cc1C,"inactive: 0.169% [at 11.4 µM, scaled: untreated 0%, proteasome inhibitor 100%]",

Structure (SMILES),IkBa stabilization activation,Potency
O=C(c1ccc2c(c1)CCN2S(=O)(=O)c1ccccc1)N1CCN(c2ccc(F)cc2)CC1,inconclusive: 0.275% [signal inhibitor],
CC(C)(C)c1ccc(OCc2nc(-c3ccccn3)no2)c(Br)c1,inconclusive: -3.86% [signal inhibitor],
COC(=O)c1c(NC(=O)c2ccc(C)o2)sc2c1CCCCC2,inactive: 9.13%,
Cc1c(-c2ccccc2)c(P(=O)(N2CCOCC2)N2CCOCC2)c2ccccn12,inactive: 0.623%,
O=C(c1ccc2c3c(cccc13)CC2)N1CCN(c2ncccn2)CC1,inconclusive: 5.9% [signal inhibitor],
COc1ccc2c(c1)CCc1c(C(=O)Nc3c(C)nn(Cc4ccccc4Cl)c3C)noc1-2,inconclusive: 16.4% [signal inhibitor],
Cn1c(=O)c2c(nc(NCCc3ccccc3)n2Cc2cccc(Br)c2)n(C)c1=O,inconclusive: 4.04% [signal inhibitor],
CCCCN(CC)CCCNC(=O)c1cn(CC(C)C)c(=O)c2c1c1ccccc1n2C,inconclusive: 2.73% [signal inhibitor],
CCn1c(=O)c2[nH]c(-c3ccccc3)nc2n(CC)c1=O,inactive: 5.31%,
CCNc1ncc2nc(-c3ccc(OC)cc3)c(=O)n(C[C@H]3CCCO3)c2n1,"inactive: -9.36% [at 11.4 µM, scaled: untreated 0%, proteasome inhibitor 100%]",
Cc1ccc(CCNC(=O)c2nnc(Cc3cccc(F)c3)o2)cc1,inconclusive: 2.54% [signal inhibitor],
CC1Cc2ccccc2N1S(=O)(=O)c1nnc(NC(=O)c2ccccc2Br)s1 (stereo unspecified),inactive: -1.37%,
N#Cc1c(-c2ccccc2)no[n+]1[O-],,"inconclusive: 31.6 µM [rising, partial curve]"
Cc1[nH]c2ccc(F)cc2c1CCNC(=O)c1cc2cc(Cl)ccc2oc1=O,inconclusive: 1.05% [signal inhibitor],
COc1ccc(S(=O)(=O)NCC(c2cccs2)S(=O)(=O)c2ccc(C)cc2)cc1F (stereo unspecified),inconclusive: 1.45% [signal inhibitor],
Cc1cc(-c2ccc(N=Nc3ccc4c(S(=O)(=O)O)cc(S(=O)(=O)O)c(N)c4c3O)c(C)c2)ccc1N=Nc1ccc2c(S(=O)(=O)O)cc(S(=O)(=O)O)c(N)c2c1O,inconclusive: 2.39% [signal inhibitor],
COc1ccc(Cl)cc1NS(=O)(=O)c1c(C)nc2scc(C)n2c1=O,inconclusive: 5.47% [signal inhibitor],
COC(=O)C(CCSC)NC(=O)CNC(=O)C1CCCCC1 (stereo unspecified),inactive: -1.23%,
CCn1c(CCC(=O)Nc2nc3c(s2)CCCC3)nc2cc(S(=O)(=O)N(C)C)ccc21,inconclusive: -0.194% [signal inhibitor],
Cc1ccc(CNC(=O)c2c[nH]c3ccc(S(=O)(=O)Nc4ccc(C(C)C)cc4)cc3c2=O)cc1,inconclusive: -0.548% [signal inhibitor],
O=C(NC1(C(F)(F)F)NC(=O)N(CCc2ccccc2)C1=O)c1ccccc1F (stereo unspecified),inconclusive: -0.432% [signal inhibitor],
CCN1CCN(Cc2ccc(NC(=O)Nc3ccccc3OC)cc2)CC1,inactive: 3.41%,

Structure (SMILES),IkBa stabilization activation,Potency
Cc1ccc(NC(=O)CCc2c(C)nn(-c3ccc(N4CCCCC4)nn3)c2C)cc1F,inconclusive: 3.87% [signal inhibitor],
CS(=O)(=O)Nc1ccccc1C(=O)Nc1ccc2c(c1)OCCO2,inactive: -6.7%,
O=C(Nc1cccc(-c2nnc(-c3ccccc3)o2)c1)C1CCCO1 (stereo unspecified),inconclusive: -0.172% [signal inhibitor],
CCOc1ccc2nc(N(Cc3cccnc3)C(=O)c3ccc4c(c3)OCCO4)sc2c1,inconclusive: 4.44% [signal inhibitor],
COc1ccccc1CNC(=O)Cn1c(=O)ccc2cc(S(=O)(=O)N3CCC(C)CC3)ccc21,inconclusive: 6.07% [signal inhibitor],
COC(=O)c1c(C)oc2c1cc(NS(=O)(=O)c1c(C)cc(C)cc1C)c1ccccc12,inconclusive: 5.68% [signal inhibitor],
O=S(=O)(c1ccc(Cl)cc1)c1nc(-c2ccccc2Br)oc1N1CCOCC1,inconclusive: 5.62% [signal inhibitor],
O=C(Oc1ccc(Br)cc1)C1CC(=O)N(c2ccc(F)cc2)C1 (stereo unspecified),inactive: 2.02%,
COc1ccc(N2CCN(C(=O)Cn3cnc4sc(C)c(S(=O)(=O)N5CCC(C)CC5)c4c3=O)CC2)cc1,inconclusive: 1.61% [signal inhibitor],
CCOC(=O)c1ccc(N2C(=O)c3n[nH]c(C)c3C2c2ccc(O)c(OC)c2)cc1 (stereo unspecified),,"inconclusive: 25.1 µM [signal inhibitor, single point]"
c1c2c(cc3sc(N4CCCCC4)nc13)OCCO2,,"inconclusive: 15.8 µM [signal inhibitor, partial curve]"
Cc1ccc(-n2ncc(C(=O)N3CCN(c4ccccn4)CC3)c2C2CCN(C(=O)OC(C)(C)C)CC2)cc1C,inconclusive: 0.0216% [signal inhibitor],
Cc1ccc(-c2nc3cc(N)ccc3o2)cc1,inactive: 5.74%,
CCOc1ccc(-c2nc(C#N)c(NCc3ccc4c(c3)OCO4)o2)cc1,inactive: 0.583%,
COc1ccc(C(=O)Nc2onc3c2CCCC3)cc1,inconclusive: 0.561% [signal inhibitor],
O=C(CSc1c2c(nc3ccc(Cl)cc13)CCCC2)N1CCN(C(=O)c2ccco2)CC1,,"inconclusive: 3.98 µM [signal inhibitor, partial curve]"
CCOC(=O)C1=C(C)NC(C)=C(C(=O)OC)[C@H]1c1cccc([N+](=O)[O-])c1,inconclusive: 2.16% [signal inhibitor],
CN(C)CCN1C(=O)C(O)=C(C(=O)c2cc3ccccc3o2)C1c1ccc(N(C)C)cc1 (stereo unspecified),inconclusive: 13.9% [signal inhibitor],
Cc1c(CNC2CCCCCC2)c(C(=O)O)c(C)n1Cc1c(F)cccc1Cl,inactive: 2.12%,
Cc1cc(C)nc(-n2nc(C)cc2NC(=O)CN2CCC(C)CC2)n1,inactive: -0.321%,
COc1ccc2c(c1)c1c(c(=O)n(-c3cccc(Cl)c3)c(=O)n1C)n2C,inconclusive: 2.19% [signal inhibitor],
Cc1cccc2sc(N(Cc3cccnc3)C(=O)C3CCCCC3)nc12,inconclusive: -0.0211% [signal inhibitor],
